# From PubChem BioAssay AID1345083 (National Center for Advancing Translational Sciences (NCATS), 2018)
# Among all 94,000 compounds or so, about 6,200 (6.6%) were called active. The shares of active, inactive and inconclusive entries below differ from those in the screen. The call rests on the fitted dose curve; in most records, active means well fitted inhibition curve with a large enough effect; inconclusive means small, poorly fitted or top-dose-only effect; inactive means flat fitted curve, though single readings scatter. Where the call is inconclusive, the potency comes from a doubtful curve fit.
# Test: Cytotoxic Profiling in HEK 293 Cell Line of Diverse Libraries Using Quantitative High-Throughput Screening; further: nearly all actives have a fitted effect of over 60% in size
# Conditions: HEK 293 viability, ATP luminescence (CellTiter-Glo), 48-72 h; activity change, negative = cytotoxicity: at 115 µM (top of the series) unless noted; series mostly up to 115 µM
# How it was run: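 CellTiter-Glo luminescence (cellular ATP) was read after 48 or 72 hr of compound exposure at 37 degree Celsius. Cells were HEK 293 plated at 250 cells/well.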
# On the % scale 0 is the no-effect control and ±100 the full control effect; potency means the concentration at half of the fitted maximal effect; tags describe the fitted curve by direction and shape.
Compound,Potency,"activity change, negative = cytotoxicity",outcome
O=C(NCc1ccccn1)c1cn2cc(-c3ccccc3)sc2n1,active: 50.1 µM,,
COc1ccc(CCC(=O)N2CC[C@@H](n3c(=O)n(C)c4cccnc43)C2)cc1,,inactive: -5.7%,
Cc1nc(CN2Cc3nc(Nc4ccc(C(F)(F)F)cc4)ccc3OCC2=O)cs1,"inconclusive: 56.2 µM [inhibitor, partial curve, poor fit]",,
O=C(CC1CCCN(c2cn[nH]c(=O)c2)C1)N1CCCCCC1 (configuration not stated),,inactive: -18.3%,
O=C(c1ccc2ncccc2c1)N1CCC2(CC1)NCCc1c2[nH]c2ccccc12,"inconclusive: 44.7 µM [inhibitor, partial curve, poor fit]",,
CCCNC(=O)[C@@H]1CCCN1[C@@H](C(=O)NC)c1ccccc1,,inactive: -25.8% [at 172 µM],
COCCN1CCC2(CCC1=O)CCN(S(=O)(=O)c1ccc3c(c1)OCCO3)CC2,"inconclusive: 56.2 µM [inhibitor, partial curve, poor fit]",,
Cc1cccc(CN2CCCn3nc(C)c(-c4ccccc4-c4ccccc4)c32)n1,"inconclusive: 17.8 µM [inhibitor, full curve, poor fit]",,
CC(=O)Nc1ccccc1-c1c(C)nn2c1N(CCCc1ccccc1)CCC2,"inconclusive: 50.1 µM [inhibitor, full curve, poor fit]",,
CC(C)n1ccc2c(NC(=O)Cn3nc4c(cc3=O)CCCCC4)cccc21,"inconclusive: 56.2 µM [inhibitor, partial curve, poor fit]",,
O=C(C1CCCC1)N1CCN(Cc2ccccc2-c2ccccc2F)CC1,"inconclusive: 12.6 µM [inhibitor, partial curve, poor fit]",,
COc1ccc(Cl)cc1-c1ccc2c(c1)C(=O)N1CCN(C(=O)c3cccs3)C[C@@H]1C(=O)N2,"inconclusive: 35.5 µM [inhibitor, full curve]",,
CC(C)c1ccc(CN2CCCC3(CCN(C(=O)c4ccsc4)C3)C2)cc1 (configuration not stated),"inconclusive: 50.1 µM [inhibitor, partial curve, poor fit]",,
CC(C)c1ccc(CN2CCC3(CC2)COCCN3C(=O)OCc2ccccc2)cc1,active: 50.1 µM,,
COc1ccccc1N1CCN(C2CCCN(Cc3cccc(C)n3)C2)CC1 (configuration not stated),"inconclusive: 25.1 µM [inhibitor, single point]",,
c1ccc(O[C@H]2COCCN(Cc3cccc4c3OCO4)C2)cc1,"inconclusive: 63.1 µM [inhibitor, partial curve]",,
Cc1ccc(-c2cc(N3CCCN(C(=O)c4cccc(N(C)C)c4)CC3)n[nH]2)cc1C,"inconclusive: 50.1 µM [inhibitor, partial curve, poor fit]",,
Cc1c(-c2ccccc2)[nH]c2c(CNC(=O)C3=NN(C)C(=O)CC3)cc(Cl)cc12,active: 44.7 µM,,
NC(=O)[C@@H](Cc1ccccc1)NC(=O)[C@@]1(O)C[C@@H](O)[C@H](O)[C@@H](NC(=O)c2cccnc2)C1,,inactive: -10.6%,
CC1=C[C@@H](CNC(=O)C(C)C)[C@H](C(C)C)C[C@H]1Cc1nc2ncccc2[nH]1,,inactive: -23.3% [at 172 µM],
COCCNC(=O)C[C@@H]1C[C@@H](C(C)C)[C@H](CNC(=O)C2CC2)C=C1C,"inconclusive: 70.8 µM [inhibitor, partial curve, poor fit]",,

Compound,Potency,"activity change, negative = cytotoxicity",outcome
O=C(NCc1ccc(F)cc1)c1nc(-c2cc(Cl)cc(Cl)c2)c2ccccn12,"inconclusive: 35.5 µM [inhibitor, partial curve, poor fit]",,
CSc1ccc(-c2cccc(C(=O)NCC(=O)NCCc3ccc(Cl)cc3)c2)cc1,"inconclusive: 44.7 µM [inhibitor, partial curve, poor fit]",,
O=C(CC[C@@H]1CNC(=O)[C@@H]2C[C@H](NC(=O)Nc3ccc(F)cc3F)CN12)NC1CC1,,,inactive [at 172 µM]
C[S+](=O)([O-])c1ccc(-c2nccc3c(=O)cc(-c4ccncc4)oc23)cc1,"inconclusive: 89.1 µM [inhibitor, partial curve, poor fit]",,
COc1cccc2ccc(N3CCN(Cc4ccccc4)CC(O)C3)nc12 (configuration not stated),"inconclusive: 89.1 µM [inhibitor, single point]",,
Cc1ccc(CN2C(=O)[C@@H]3C[C@@H](O)CN3C3(CN(C4CCC4)C3)C2=O)o1,,inactive: 2.16% [at 172 µM],
COC(=O)CNC(=O)c1ccc(-c2ccc(OC)nn2)cc1Cl,,inactive: 1.46% [at 172 µM],
O=C(C[C@H]1NC(=O)c2ccccc2NC1=O)NCCc1nc2ccccc2[nH]1,,inactive: -0.23%,
C=CC[C@H]1CC(C)=C[C@H](CC=C)N1Cc1ccc(CN(C)S(C)(=O)=O)o1,"inconclusive: 56.2 µM [inhibitor, partial curve, poor fit]",,
COc1cccc(CNC(=O)c2nnn3cc(C)[nH]c(=O)c23)c1,,inactive: 11.9%,
CCN(C(=O)CN1C(=O)NC2(CCS(=O)(=O)CC2)C1=O)c1cccc(C)c1,,inactive: 12.6%,
COCC(=O)N[C@H]1C[C@@H](Cc2cc(CN(C)Cc3ccccc3)on2)C1(C)C,"inconclusive: 44.7 µM [inhibitor, full curve]",,
CN(C)c1ccc(CN2CCC3(C2)C(=O)Nc2ccccc23)cc1 (configuration not stated),"inconclusive: 89.1 µM [inhibitor, partial curve, poor fit]",,
O=C(CNC(=O)c1ccc(-c2cnc3ccccc3c2)cc1)NCC1CCCCC1,active: 39.8 µM,,
Cc1ccc(C(=O)N2CCC(N3C(=O)C4(CCCC4)C3c3scnc3C)CC2)cn1 (configuration not stated),,inactive: 4.78%,
COc1ccc(Cl)cc1NC(=O)CCC1CCCN(C(=O)c2ccnn2C)C1 (configuration not stated),"inconclusive: 20 µM [inhibitor, full curve, poor fit]",,
CC(C)C1CN(C(=O)OC(C)(C)C)CCN1 (configuration not stated),,,inactive [at 345 µM]
O=C1NC2(CN([S+](=O)([O-])c3ccccc3)C2)Oc2ccccc21,"inconclusive: 126 µM [inhibitor, single point]",,
Cc1ccc2ncccc2c1Cn1ccnc1-c1cc2n(n1)CCCNC2,,inactive: 2.08%,
O=C(C1CCCN1C(=O)NC1CCCC1)N1CCC(c2ccccc2)CC1 (configuration not stated),,inactive: -18.3%,
CN(C)C[C@@H]1CN(Cc2ccccn2)C[C@H]1NC(=O)c1ccc(Cl)cc1,"inconclusive: 39.8 µM [inhibitor, partial curve, poor fit]",,
